Laboratory results as given in the supplement of paper PMC8674133.
Changes are numbered by the printed parent chain. Recombinant human monoclonal antibodies (heavy:light variable regions). ELISA EC50 on the named antigen, from 10 µg/ml down; IC50 / IC90 against spike pseudovirus on 293T-ACE2 cells, 48 h; lower = stronger. Calls: IC50 above 1,000 ng/ml = non-neutralizing; EC50 above 2,000 ng/ml = non-binder. The source prints 1000 for neutralization that was not reached; it is given as >1000 ng/ml. A few antibodies were first reported in earlier work of the same group.

Key:
[1] = biological target: SARS-CoV-2 Wuhan-Hu-1 spike pseudovirus; assay: pseudovirus neutralization IC50; higher = weaker neutralization
Protocol: (§1)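 Single-round luciferase reporter pseudovirus mixed with antibody dilutions and put on 293T-ACE2 cells for 48 h; signal relative to no-antibody wells, four-parameter fit.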

[2] = biological target: SARS-CoV-2 Wuhan-Hu-1 spike pseudovirus; assay: pseudovirus neutralization IC90; higher = weaker neutralization
Protocol: as §1

[3] = biological target: SARS-CoV-2 Wuhan-Hu-1 spike receptor-binding domain; assay: ELISA binding EC50; higher = weaker binding; ELISA of recombinant human antibody on coated antigen, from 10 µg/ml in fourfold dilutions; four-parameter fit.

B1: C1168 (protein)
chain 1: QVQLVQSGAEVRKPGASVKVSCKASGYTFTNYYLHWVRHAPGQGLEWMGIINPSGGSTTYAQKFQGRVTLTTDTSTSTVYMELSSLRSEDTAVYYCARDSAFIPHIEYGMDVWGQGTTVTVSS
chain 2: QSALTQPPSASGSPGQSVTISCTGTSSDVGGYNYVSWYQQHPGKAPKVMIYEVTKRPSGVPDRFSGSKSGNTASLTVSGLQAEDEADYYCSSYAGSNNLLFGGGTKLTVL
[1]
  pseudovirus neutralization IC50: > 1 µg/mL
[2]
  pseudovirus neutralization IC90: > 1 µg/mL
[3]
  ELISA binding EC50: 0.00468 µg/mL

B2: C2465 (protein)
chain 1: VQLVESGGGVVQPGRSLRLSCAASGFTFSSYAMHWVRQAPGKGLEWVAVISYDGSNKYYADSVKGRFTISRDNSKYTLYLQMNSLRAEDTAVYYCASLITMVRGVPDYWGQGTLVTVSS
chain 2: DIQLTQSPSSLSASVGDRVTITCRASQNISNYLNWYQQKPGKAPKLLIYAASSLQSGVPSRFSGSGSGTDFTLTISSLQPEDFASYYCQQSYSTPITFGQGTRLEIK
[1]
  pseudovirus neutralization IC50: 0.0267 µg/mL
[2]
  pseudovirus neutralization IC90: > 1 µg/mL
[3]
  ELISA binding EC50: 0.0016 µg/mL

B3: C2124 (protein)
chain 1: EVQLVESGGGLVQPGGSLRLSCAASGFTFSSYWMHWVRQAPGKGLVWVSRINSDGSSTTYADSVKGRFTISRDNAKNTLYLQMNSLRAEDTAVYYCARVGGTIVGDADYFDYWGQGTLVTVSS
chain 2: SYELTQPPSVSVAPGKTARITCGGNNIGSKSVHWYQQKPGQAPVLVVYDDSDRPSGIPERFSGSNSGNTATLTISRVEAGDEADYYCQVWDSSSDPWVFGGGTKLTVL
[1]
  pseudovirus neutralization IC50: > 1 µg/mL
[2]
  pseudovirus neutralization IC90: > 1 µg/mL
[3]
  ELISA binding EC50: 0.00185 µg/mL

B4: C2141 (protein)
chain 1: VQLVESGGGVVQPGRSLRLSCAASGFTFSSYGMHWVRQAPGKGLEWVAVISYDGSNKYYADSVKGRFTISRDNSKNTLYLQMNSLRAEDTAVYYCAKNLGIYCSGGSCYSGSFDYWGQGTLVTVSS
chain 2: IRMTQSPSSLSASVGDRVTITCQASQDISNYLNWYQQKPGKAPKLLIYDASNLETGVPSRFSGSGSGTDFTFTISSLQPEDIARYYCQQYDNFALTFGGGTKVEIK
[1]
  pseudovirus neutralization IC50: > 1 µg/mL
[2]
  pseudovirus neutralization IC90: > 1 µg/mL
[3]
  ELISA binding EC50: 0.00315 µg/mL

B5: C2062 (protein)
chain 1: VQLVESGGGVVQPGRSLRLSCAASGFTFSSYGMHWVRQAPGKGLEWVAVILYDGSNKYYADSVKGRFTISRDNSKNTLYLQMNSLRADDTAVYYCAKAGLYGDYVRFGYWGQGTLVTVSS
chain 2: B4 chain 2 with P39A, A42V, D69H, R84T, D91N, F93L, A94P
[1]
  pseudovirus neutralization IC50: > 1 µg/mL
[2]
  pseudovirus neutralization IC90: > 1 µg/mL
[3]
  ELISA binding EC50: 0.0027 µg/mL

B6: C2061 (protein)
chain 1: B4 chain 1 with S29R, G54A, Y58D, T90M, N98A, L99N, G100A, I101P, S107N, S112Y
chain 2: B4 chain 2 with N33I, Q37L, T55A, S62R, R84T, F93L, A94P, G99P, E104D
[1]
  pseudovirus neutralization IC50: > 1 µg/mL
[2]
  pseudovirus neutralization IC90: > 1 µg/mL
[3]
  ELISA binding EC50: 0.00171 µg/mL

B7: C2059 (protein)
chain 1: VQLVESGGGVVQPGRSLRLSCAASGFTFSSYGMHWVRQAPGKGLEWVAVISYDGSNKYYADSVKGRFTISRDNSKNTLYLQMNSLRAEDTAVYYCAKVGYSYGYSYNYFDYWGQGTLVTVSS
chain 2: IRMTQSPSSLSASVGDRVTITCQASQDISNYLNWYQQKPGKAPKLLIYDASNLETGVPSRFSGSGSGTDFTFTISSLQPEDIATYYCQQYDNLPPYTFGQGTKLEIK
[1]
  pseudovirus neutralization IC50: > 1 µg/mL
[2]
  pseudovirus neutralization IC90: > 1 µg/mL
[3]
  ELISA binding EC50: 0.00406 µg/mL

B8: C2065 (protein)
chain 1: EVQLLESGGGLVQPGGSLRLSCAASRFTFGSYAMSWVRQAPGKGLEWVSTISGRGGSTYYADSVKGRFTISRDNSKNTLYLQMNGLRAEDTAVYYCAKGGDTAMVNAEYFQHWGQGTLVTVSS
chain 2: DIQMTQSPSTLSASVGDRVTITCRASQSISSWLAWYQQKPGKAPKLLIYDASSLESGVPSRFSGSGSGTEFTLTISSLQPDDFATYYCQQYKSLALTFGGGTKVEIK
[1]
  pseudovirus neutralization IC50: 0.00518 µg/mL
[2]
  pseudovirus neutralization IC90: 0.0573 µg/mL
[3]
  ELISA binding EC50: 0.00172 µg/mL

B9: C2070 (protein)
chain 1: EVQLVQSGAEVKKPGESLKISCKGSGYRFTSYWIGWVRQMPGKGLEWMGIIYPDDSDIRYSPSFQGQVTISADKSISTAYLQWSSLKASDTAMYYCARQGPMGGGPFDYWGQGTLVTVSS
chain 2: B8 chain 2 with S30D, L46F, T74S, K92S, L94N, A95P, L96Y, G100Q, V104L
[1]
  pseudovirus neutralization IC50: 0.653 µg/mL
[2]
  pseudovirus neutralization IC90: > 1 µg/mL
[3]
  ELISA binding EC50: 0.0024 µg/mL

B10: C2121 (protein)
chain 1: EVQLLESGGGLVQPGGSLRLSCAASGFTFSSYAMSWVRQAPGKGLEWVSAISFSGGSTYYADSVKGRFTISRDNSKNTLYLQMNSLRAADTAVYYCAKDLGYCSGGSCFSGSPGWGQGTLVTVSS
chain 2: NFMLTQPHSVSESPGKTVTISCTGSSGSIASNYVQWYQQRPGSAPTTVIYEDNQRPSGVPDRFSGSIDSSSNSASLTISGLKTEDEADYYCQSYDSSNHVVFGGGTKLTVL
[1]
  pseudovirus neutralization IC50: > 1 µg/mL
[2]
  pseudovirus neutralization IC90: > 1 µg/mL
[3]
  ELISA binding EC50: 0.0173 µg/mL

B11: C1174 (protein)
chain 1: QVQLVESGGGVVQPGKSLRLSCAASGFTFSSFGMHWVRQAPGKGLDWVAGISYDGSNKYCADSVKGRFTISRDNSKNTLYLQMNSLRVEDTAVYYCAKDPRNGISGTTGYFDYWGQGTLVTVSS
chain 2: SYELTQPPSVSVAPGQTARITCGGNNIGSKSVHWYQQKPGQAPVLVVYDDSDRPSGIPERFSGSNSGNTATLTISRVEAGDEADYYCQVWDSSSDHFWVFGGGTKLTVL
[1]
  pseudovirus neutralization IC50: > 1 µg/mL
[2]
  pseudovirus neutralization IC90: > 1 µg/mL
[3]
  ELISA binding EC50: 0.0021 µg/mL

B12: C2483 (protein)
chain 1: EVQLVESGGGLVQPGRSLRLSCSVSGFTFDEYAMHWVRQAPGKGLEWVSGISWNGGTIGYADSVKGRFTISRDNAKNSLYLQMNSLRAADTALYYCAKDIYPLDYGDAFFFDSWGQGTLVTVSS
chain 2: EIVLTQSPGTLSLSPGERVTLSCRASQRVSSSYLAWYQQKPGQAPRLLIYGASSRAIGIPDRFSGGGSGTDFTLTISRLEPEDFAVYYCQCYGSTPPITFGPGTKVDIK
[1]
  pseudovirus neutralization IC50: > 1 µg/mL
[2]
  pseudovirus neutralization IC90: > 1 µg/mL
[3]
  ELISA binding EC50: 0.00339 µg/mL

B13: C2072 (protein)
chain 1: QVQLVQSGAEVKKPGSSVKVSCKASGGTFSSYAISWVRQAPGQGLEWMGGIIPMFGTANYAQKFQGRVTITADESTSTDYMELSSLRSEDTAVYYCARGRAAAAPPFTWFDPWGQGTLVTVSS
chain 2: ELTQPPSVSGAPGQRVTISCTGSSSNIGAGYDVHWYQQLPGTAPKLLISGNSNRPSGVPGRFSGSKSGTSASLAITGLQAEDEADYYCQSYDSSLSGSVFGGGTKLTVL
[1]
  pseudovirus neutralization IC50: 0.0232 µg/mL
[2]
  pseudovirus neutralization IC90: 0.389 µg/mL
[3]
  ELISA binding EC50: 0.00296 µg/mL

B14: C2123 (protein)
chain 1: QVQLVQSGAEVKKPGASVKVSCKASGYTFTNYAMHWVRQAPGQRLEWMGWINAGNGNTKYSRKFQGRVTITRDTSASTAYMDLSSLRSEDTAVYYCAREPPSHSSGYYNESGGAFDIWGQGTMVTVSS
chain 2: SYELTQPPSVSVSPGQTARITCSGDALPKKYAYWYQQKSGQAPVLVIYGDSKRPSGIPERFSGSSSGTMATLTISGAQVEDEADYYCYSTDSSEGVFGGGTKLTVL
[1]
  pseudovirus neutralization IC50: 0.0395 µg/mL
[2]
  pseudovirus neutralization IC90: 0.531 µg/mL
[3]
  ELISA binding EC50: 0.00219 µg/mL

B15: C2067 (protein)
chain 1: B14 chain 1 with K13M, N31F, A33S, W50C, R62Q, I70F, D82E, S84T, N109Y, E110G
chain 2: B14 chain 2 with G49A
[1]
  pseudovirus neutralization IC50: > 1 µg/mL
[2]
  pseudovirus neutralization IC90: > 1 µg/mL
[3]
  ELISA binding EC50: 0.0242 µg/mL

B16: C2139 (protein)
chain 1: EVQLVETGGGLIQPGGSLRLSCVASEFIVSSNYMSWVRQAPGKGLEWVSIIYSGGSTFYADSVKGRFTISRDNSKNTLYLQMNSLRAEDTAVYYCARVLPMNWYYFDYWGQGALVTVSS
chain 2: QSVLTQPPSVSGAPGQRVTISCTGSSSNIGAGYDVHWYQQLPGTAPKLLIYANSNRPSGVPDRFSGSKSGTSASLAITGLQAEDEADYYCQSYDSSLSGSRVFGGGTKLTVL
[1]
  pseudovirus neutralization IC50: 0.0201 µg/mL
[2]
  pseudovirus neutralization IC90: 0.143 µg/mL
[3]
  ELISA binding EC50: 0.00402 µg/mL
